Data on 1 molecule can be found in US20240239885A1, “ANTIBODY CONJUGATE COMPRISING ANTI-P-CADHERIN ANTIBODY AND USES THEREOF” (WUXI BIOLOGICS IRELAND LIMITED, priority 2021, published 2024).

Data set [1] addresses T1, human P-cadherin expressing NCI-H1650 cells (Homo sapiens, UniProt P22223).
T1 construct: endogenous in cells; host or cells: NCI-H1650
Kind of data set: Affinity to P-cadherin (FACS) on NCI-H1650 cells. The data set is classed as binding.

The next data set deals with A375. The experiment in a line: Non-specific binding (FACS) on A375. The arrangement: species or system human. The settings on record: A375, 10 μg/mL. The method, then: (§1) Human cell lines were seeded in 96-well plates (BD) at a density of 1×10^5 cells/well. 10 μg/mL antibody samples were added to cells and incubated for 1 h at 4° C. After washing, the cells were resuspended and incubated with PE-conjugated goat anti-human IgG Fc antibody (Jackson) for 30 min. After washing and resuspending, mean fluorescence intensity (MFI) was measured by flow cytometry (BD Canto II) and analyzed by FlowJo.

The test system of another data set is A204. Kind of data set: Non-specific binding (FACS) on A204. The settings on record: A204, 10 μg/mL. The arrangement: species or system human. The method, then: as §1
Data set [2] has as its system HCC-1954 cells. The experiment in a line: Antibody mediated internalization assay (HCS) on HCC-1954. The data set is classed as cell-based, human. The method, then:
Operetta CLS (PerkinElmer) is a high content imaging and analysis system that can collect and analyze images of samples with high speed and sensitivity. One day before the assay day, Poly-D-Lysine (PDL) was diluted to 8 μg/mL in DPBS (Hyclone, #SH30028.03) and added 100 μL/well into 96-well clear bottom black plates (Greinier, #655090). The PDL-coated plates were then incubated at 37° C. for 1 hour before discarding the supernatant. HCC-1954 (ATCC, CRL-2338) cells or NCI-H1650 (ATCC, CRL-5883) cells were plated at 18000 cells per well into the PDL-coated plates in 100 μL RPMI1640 complete medium (Gibco, #22400-089) containing 10% FBS (Hyclone, #SH30084.03). On Day 1, supernatants in the plates were discarded and antibodies serially diluted in 1% BSA/1×PBS (Ca+/Mg+) were added at 100 µL/well and incubated at 4° C. for 2 hours. A non-related hlgG1 antibody was used as an isotype control. […]
Images were collected and analyzed by operetta CLS (PerkinElmer). The amount of internalized anti-P-cadherin antibody was assessed by measuring the mean fluorescence (MFI) per cell, wells containing no antibody or secondary antibody only were used to establish background fluorescence. […]

Data set [3] deals with T1, human P-cadherin expressing NCI-H1650 cells. Kind of data set: Target binding (FACS) on NCI-H1650 cells. The method, then: Binding of the ADCs to P-cadherin expressed on HCT-116 cells was determined by flow cytometry analysis using the same procedure as described above. In brief, HCT-116 or NCI-H1650 cells were harvested with Versene (Invitrogen, #15040066) and diluted to 1×10^6 cells/ml in 1% BSA (Bovogen, #BSAS)/1×PBS (Ca+/Mg+) (Gibco, #14040-117). 1×10^5 cells/well (100 μL) were added to each well of a 96-well U-plate (Corning, #3799) and centrifuged at 1500 rpm (Eppendorf, #5810R) for 5 minutes before removing the supernatant. Antibodies serially diluted in 1% BSA/1×PBS (Ca+/Mg+) were added at 100 μL/well to the pelleted cells and incubated at 4° C. for 1 hour. A non-related hlgG1 antibody was used as an isotype control. Cells were washed two times with 180 μL/well of 1% BSA/1×PBS (Ca+/Mg+) by centrifugation at 1500 rpm for 5 minutes at 4° C. […] After the final wash, cells were resuspended in 100 μL 1% BSA/1×PBS (Ca+/Mg+) and fluorescence values were measured with a FACS Canto II cytometer (BD Biosciences). The amount of cell surface bound anti-P-Cadherin antibody was assessed by measuring the mean fluorescence (MFI). The FACS raw data were analyzed by FlowJo software, wells containing no antibody or secondary antibody only were used to establish background fluorescence.

A further data set relates to 293F. Kind of data set: Non-specific binding (FACS) on 293F. The arrangement: species or system human. Particulars: 10 μg/mL. As to the method:
as §1

The test system of another data set is HCT-116 cells. The experiment in a line: Serum stability in human serum, FACS binding to HCT-116 cells. The data set is classed as in vitro ADME. Particulars: human serum 37° C. The method, then:
The antibody stability in human serum was tested by FACS. Briefly, human serum was freshly isolated by centrifuging the fresh blood twice at 4000 rpm for 10 minutes. […] As a control, antibodies serum mix was frozen immediately without 37° C. incubation. For the FACS analysis, the samples from different time points were free-thawed simultaneously at 4° C. The thawed antibodies were serially diluted and added to 1×10^5/well HCT-116 (ATCC, #CCL-247) cells and incubated for 1 hour at 4° C. The cells were washed twice with 1% BSA/1×PBS (Ca+/Mg+). Alexa647 conjugated Goat anti-human IgG Fc (Jackson, #109-605-098) 1:500 diluted in 1% BSA/1×PBS (Ca+/Mg+) were added to the cells and incubated at 4° C. for 30 minutes. Cells were washed twice in the same buffer and the mean fluorescence (MFI) of stained cells was measured using a FACS Canto II cytometer (BD Biosciences) and analyzed by FlowJo. Wells containing no antibody or secondary antibody only were used to establish background fluorescence. Four-parameter non-linear regression analysis was used to obtain EC50 values for cell binding using GraphPad Prism6 software.
In general terms: Flow cytometry measures light scatter and fluorescence of single cells or particles in a stream.

In data set [4] the test system is HCC-1954 cells. Kind of data set: Cytotoxicity assay of ADC (Cell Titer Glo) on HCC-1954. The settings on record: HCC-1954, 5 days.

T1 sequence (P22223 108-829): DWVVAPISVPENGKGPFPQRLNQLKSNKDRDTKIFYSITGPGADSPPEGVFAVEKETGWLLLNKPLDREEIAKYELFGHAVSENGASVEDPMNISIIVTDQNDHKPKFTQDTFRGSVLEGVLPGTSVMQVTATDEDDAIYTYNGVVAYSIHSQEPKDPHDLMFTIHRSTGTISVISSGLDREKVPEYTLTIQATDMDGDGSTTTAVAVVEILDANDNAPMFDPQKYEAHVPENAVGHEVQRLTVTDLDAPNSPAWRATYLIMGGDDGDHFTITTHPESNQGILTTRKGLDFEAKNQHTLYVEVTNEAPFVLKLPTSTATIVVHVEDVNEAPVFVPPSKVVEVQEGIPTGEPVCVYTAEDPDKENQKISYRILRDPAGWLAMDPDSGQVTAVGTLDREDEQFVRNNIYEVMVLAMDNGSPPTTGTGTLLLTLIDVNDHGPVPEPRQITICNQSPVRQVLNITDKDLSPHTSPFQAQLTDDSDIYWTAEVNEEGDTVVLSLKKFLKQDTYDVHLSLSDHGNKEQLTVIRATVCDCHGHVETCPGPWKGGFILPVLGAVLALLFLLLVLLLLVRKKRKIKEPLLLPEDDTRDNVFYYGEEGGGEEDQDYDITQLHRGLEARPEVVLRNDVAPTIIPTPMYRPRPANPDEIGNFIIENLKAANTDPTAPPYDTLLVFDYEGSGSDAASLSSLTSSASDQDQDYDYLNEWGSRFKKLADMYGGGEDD

B1: W3195-1.53.1-p1-uIgG1L-MMAE (conjugate)
heavy: QVQLQESGPGLVKPSETLSLTCTVSGGSVISDNYYWTWVRQPPGKGLEFIGYIYYRGSTNYNPSLKNRVIISIDTSRNQFSLDLNSVTAADTAVYYCARDRRTGNSLPFDNWGQGTLVTVSSASTKGPSVFPLAPSSKSTSGGTAALGCLVKDYFPEPVTVSWNSGALTSGVHTFPAVLQSSGLYSLSSVVTVPSSSLGTQTYICNVNHKPSNTKVDKRV[human IgG1 Fc not written out]
light: SYELTQPPSVSVSPGQTAQITCSGDKLGDKFASWYQQKSGQSPVVVIYQDNKRPSGFPERFSGSNSGNTATLTISGTQAMDEADYYCQAWDSSIVVFGGGTKLTVLGQPKAAPSVTLFPPSSEELQANKATLVCLISDFYPGAVTVAWKADSSPVKAGVETTTPSKQSNNKYAASSYLSLTPEQWKSHRSYSCQVTHEGSTVEKTVAPTECS
On to B1, for which, in data set [1], the “Bmax (M), FACS affinity” value was 1.88e-10 M. Further, the “MFI, non-specific binding” value is 20.3 in the data set on A375, 29.4 with A204 and 35.1 in the data set with 293F. The “Top MFI, internalization in HCS assay” value in the data set with HCC-1954 cells [2] is 1280. Further, the “Max MFI, FACS binding” value in data set [3] came to 3005. Also, the “stable in serum stability test” value in the data set on HCT-116 cells is “at least 14 days”. Further, the “Max MFI, FACS binding with time” value is 14400 in the data set on HCT-116 cells (Day 0); 15100 with HCT-116 cells (Day 1); 15100 in the data set on HCT-116 cells (Day 4); 15700 in the data set on HCT-116 cells (Day 7); 15800 in the data set with HCT-116 cells (Day 14). The “Max Inh %” value in the data set with HCC-1954 cells [4] came out at 96.9%.
